Laboratory results published in PubChem BioAssay AID1476 (National Center for Advancing Translational Sciences (NCATS), 2009).
In all, about 200,000 compounds went through this assay and about 4,500 (2.2%) were called active. The inconclusive results got no clear call from the source; some entries with a clear call stand among them for comparison. The call rests on the fitted dose curve; in most records, active means well fitted inhibition curve with a large enough effect; inconclusive means small, poorly fitted or top-dose-only effect, or effect the other way; inactive means flat fitted curve, though single readings scatter. A potency beside an inconclusive call is a rough fit, not a confirmed value.

Each molecule was assayed against Cruzipain (Trypanosoma cruzi) (UniProt P25779) (assay: qHTS Assay for Promiscuous and Specific Inhibitors of Cruzain (without detergent)). Conditions: purified cruzain, Z-FR-AMC fluorescence, no detergent.
Chain of UniProt P25779 (P25779 whole entry, looked up): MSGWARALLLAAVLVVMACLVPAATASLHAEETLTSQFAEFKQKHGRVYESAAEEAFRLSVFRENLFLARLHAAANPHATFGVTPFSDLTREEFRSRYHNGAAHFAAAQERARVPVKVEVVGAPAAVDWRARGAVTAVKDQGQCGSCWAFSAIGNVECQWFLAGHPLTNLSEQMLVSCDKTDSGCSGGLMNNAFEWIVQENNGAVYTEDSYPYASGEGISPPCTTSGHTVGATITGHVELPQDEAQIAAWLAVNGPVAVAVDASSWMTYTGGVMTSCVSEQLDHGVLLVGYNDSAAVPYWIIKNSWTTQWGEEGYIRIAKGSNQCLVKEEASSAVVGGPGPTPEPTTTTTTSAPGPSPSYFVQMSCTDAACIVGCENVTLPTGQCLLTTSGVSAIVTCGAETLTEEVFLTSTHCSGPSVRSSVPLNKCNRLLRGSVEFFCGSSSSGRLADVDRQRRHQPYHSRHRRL
Outline: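 Detergent-free condition (0.00005% Triton X-100) in acetate buffer pH 5.5 with DTT. 1.5 nM enzyme and compound were pre-mixed 15 min, then 2 uM Z-FR-AMC substrate added; reaction progress from fluorescence change between first and third reads (60 s).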
Further: nearly all actives have a fitted effect of over 40% in size.
Potency means the concentration at half of the fitted maximal effect; tags describe the fitted curve by direction and shape.
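Wherever max response, negative = inhibition is given: plate controls were enzyme without inhibitor for no effect and buffer without enzyme for full effect.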

| SMILES | Potency | max response, negative = inhibition |
| --- | --- | --- |
| COC(=O)c1sc2cccc(F)c2c1S(=O)(=O)N1CCN(c2cccc(OC)c2)CC1 | inconclusive: 25.1 µM [inhibitor, single point] | – |
| O=C(Nc1ccc(Cl)cn1)Nc1ccccc1Cl | inconclusive: 25.1 µM [inhibitor, single point] | – |
| O=C(Nc1ccccc1N1CCCCC1)c1ccc(-c2cccc(Cl)c2)o1 | – | inactive: -2.83% |
| CS(=O)(=O)N1CCN(c2ccccc2NC(=O)c2cccc3ccccc23)CC1 | – | inactive: 6.26% |
| CCc1ccc(-n2nnc(-c3nsc(NC(=O)c4ccccc4Cl)n3)c2C)cc1 | inconclusive: 39.8 µM [inhibitor, single point] | – |
| CSCCC(Nc1ccc(S(=O)(=O)N2CCOCC2)cc1[N+](=O)[O-])C(=O)OCC(=O)N(C(C)C)C(C)C (centres undefined) | inconclusive: 31.6 µM [activator, single point] | – |
| CN1/C(=C\C(=S)NC(=O)c2cccc(Br)c2)C(C)(C)c2ccccc21 | inconclusive: 31.6 µM [inhibitor, single point] | – |
| COc1cccc(Cn2cnc3c(NS(=O)(=O)c4ccc(Cl)cc4Cl)c(C)c(C)cc32)c1 | active: 31.6 µM | – |
| Nc1nnc(Sc2ccc(Cl)cc2[N+](=O)[O-])s1 | inconclusive: 39.8 µM [inhibitor, single point] | – |
| Cc1ccc2c(c1)cc(CN(CCc1ccccc1)C(=O)N1CCOCC1)c1nnnn12 | inconclusive: 39.8 µM [activator, single point] | – |
| c1ccc(N2CCN(c3nc4ccccc4n4nnnc34)CC2)cc1 | active: 25.1 µM | – |
| Cc1ccc(NC(=O)Cn2c(O)c(N=NC(=O)c3cc4ccccc4cc3O)c3ccccc32)cc1 | active: 10 µM | – |
| O=C(CSc1oc(-c2ccccc2)nc1S(=O)(=O)c1ccc(Br)cc1)c1ccccc1 | active: 12.6 µM | – |
| Cc1nc2ccc(NC(=O)c3ccc(Cl)c(NC(=O)c4cccs4)c3)cc2s1 | inconclusive: 31.6 µM [inhibitor, single point] | – |
| CC(C)Sc1cc(N2CCOCC2)nc(-c2ccccc2)n1 | – | inactive: -8.31% |
| Cc1nn(Cc2cccc(C(=O)Nc3ccn(Cc4c(F)c(F)cc(F)c4F)n3)c2)c(C)c1[N+](=O)[O-] | inconclusive: 31.6 µM [inhibitor, single point] | – |
| Cc1ccc(C)c(N2C(=O)N(Cc3ccccc3C)c3ccccc3S2(=O)=O)c1 | inconclusive: 39.8 µM [inhibitor, single point] | – |
| O=C(Nc1nc2c(Cl)cccc2s1)c1ccc(S(=O)(=O)N2CCc3ccccc32)cc1 | active: 3.16 µM | – |
| CCOP(=O)(OCC)c1nc(/C=C/c2ccccc2)oc1NCc1ccccc1 | inconclusive: 12.6 µM [activator, partial curve] | – |
| CC(C)Sc1nc(SCC(=O)NCc2ccco2)c2c3c(sc2n1)COC(C)(C)C3 | active: 25.1 µM | – |
| Fc1ccccc1N1CCN(Cc2nnc(-c3ccc4c(c3)OCO4)o2)CC1 | – | inactive: 3.49% |
| N#CC1=C(SCc2ccc(C#N)cc2)N=C(N)C(c2nc(-c3ccccc3)cs2)C12CCCCC2 (centres undefined) | active: 10 µM | – |

| SMILES | Potency | max response, negative = inhibition |
| --- | --- | --- |
| COC(=O)c1ccc(NC(=O)CSc2n[nH]c(-c3ccccc3)n2)cc1 | – | inactive: -7.41% |
| CC(NC(=O)Cn1c(=O)oc2cc(S(=O)(=O)N3CCCC3)ccc21)c1ccccc1 (centres undefined) | inconclusive: 31.6 µM [inhibitor, single point] | – |
| COc1ccc(-n2c(SCc3nc(-c4ccc(C)cc4)no3)nnc2-c2ccccc2)cc1 | inconclusive: 31.6 µM [inhibitor, single point] | – |
| CCOc1ccc2[nH]c(=O)c(C(c3nnnn3CC3CCCO3)N3CCc4ccccc4C3)cc2c1 (centres undefined) | inconclusive: 31.6 µM [activator, single point] | – |
| CCOc1nnnc2c1sc1nc(N3CCOCC3)c3c(c12)CCCC3 | inconclusive: 31.6 µM [activator, single point] | – |
| O=C(Nc1ccc(Oc2ccccc2)cc1)c1ccc(F)c(S(=O)(=O)N2CCN(c3cccc(Cl)c3)CC2)c1 | active: 3.98 µM | – |
| COc1ccc2cc3c(N)nn(C(=O)Cc4ccccc4OC)c3nc2c1 | inconclusive: 31.6 µM [activator, single point] | – |
| CCCc1cc(=O)oc2c(C)c(OCC(=O)c3ccc(N4CCCC4)cc3)ccc12 | inconclusive: 25.1 µM [inhibitor, single point] | – |
| COc1ccc(CNc2nc(-c3ccccc3)nn2C(=O)c2cccs2)cc1 | inconclusive: 0.005 µM [inhibitor, full curve, poor fit] | – |
| COc1ccc(C2CC(C(F)(F)F)n3nc(C(=O)NCc4c(C)nn(C)c4C)c(Cl)c3N2)cc1 (centres undefined) | inconclusive: 31.6 µM [activator, single point] | – |
| CCCCOc1ccc(C(=O)NCC(c2ccc(Cl)cc2)N2CCOCC2)cc1 (centres undefined) | inconclusive: 31.6 µM [activator, single point] | – |
| COc1ccc(/C(C)=N/OCC(=O)N=Nc2c(O)[nH]c3ccc(Br)cc23)cc1 | inconclusive: 39.8 µM [inhibitor, single point] | – |
| COc1ccc2c(CC(=O)Nc3ccc(OC)c(S(=O)(=O)N4CCOCC4)c3)coc2c1 | inconclusive: 20 µM [activator, partial curve] | – |
| O=C1OCCN1C(=O)[C@H]1[C@H](c2ccc(F)cc2)C(c2cccc(Cl)c2)=NN1c1ccccc1 | active: 20 µM | – |
| COc1ccccc1-c1cncnc1NCCc1cnc[nH]1 | – | inactive: -0.262% |
| CCN(CC)c1ccc(NC(=O)Cn2ncc3c(C)n(Cc4ccccc4F)c(C)c3c2=O)c(C)c1 | inconclusive: 39.8 µM [inhibitor, single point] | – |
| Cc1nnc(N2C(=O)C(O)=C(C(=O)c3ccco3)C2c2ccc(C(C)(C)C)cc2)s1 (centres undefined) | inconclusive: 39.8 µM [activator, single point] | – |
| N#Cc1c(NC(=S)NC(=O)c2ccccc2)sc2c1CCC2 | – | inactive: -6.9% |
| Cc1ccc(-c2nc3cc(NC(=O)C(C)C)ccc3o2)cc1C | inconclusive: 31.6 µM [activator, partial curve] | – |
| Cc1ccc(C)c(-n2nnnc2SCC(=O)NCCC2=CCCCC2)c1 | inconclusive: 0.126 µM [inhibitor, full curve, poor fit] | – |
| COc1ccc2c(c1)Cc1sc(NC(=O)c3ccccc3C)nc1-2 | – | inactive: 1.92% |
| c1ccc(Nc2nc(-c3ccoc3)nc3ccccc23)cc1 | inconclusive: 10 µM [inhibitor, partial curve] | – |

| SMILES | Potency | max response, negative = inhibition |
| --- | --- | --- |
| COc1ccc(OC)c(CNC(=O)C2CCCN(c3nc4ccccc4o3)C2)c1 (centres undefined) | inconclusive: 31.6 µM [activator, single point] | – |
| CCc1c(C(=O)N/N=C/c2cn[nH]c2-c2ccc(F)cc2)csc1C | inconclusive: 39.8 µM [activator, single point] | – |
| Cc1c(C)n(Cc2ccccc2)c2ccc(C(=O)N3CCN(c4ccccc4F)CC3)cc12 | inconclusive: 39.8 µM [inhibitor, single point] | – |
| Cc1ccc(Sc2ccc(N3CCCC(C(=O)Nc4ccc(Br)cc4)C3)nn2)cc1 (centres undefined) | inconclusive: 39.8 µM [inhibitor, single point] | – |
| COc1cccc(OC)c1C(=O)N1CCN(Cc2ccccc2C(F)(F)F)CC1 | inconclusive: 31.6 µM [activator, single point] | – |
| COc1ccc(NC(=O)COC(=O)c2ccc(NS(=O)(=O)/C=C/c3ccccc3)cc2)cc1 | inconclusive: 31.6 µM [inhibitor, single point] | – |
| Cn1c(=O)cc(SCC(=O)Nc2ccccn2)c2ccccc21 | inconclusive: 39.8 µM [inhibitor, single point] | – |
| O=C1OCCN1C(=O)[C@H]1[C@H](c2ccc(Cl)cc2)C(c2ccccc2)=NN1c1ccccc1 | inconclusive: 44.7 µM [inhibitor, single point] | – |
| Nn1c(-c2cccs2)nc2sc3c(c2c1=O)CCCC3 | inconclusive: 39.8 µM [inhibitor, single point] | – |
| Cc1cc(C)cc(NC(=O)C2CCCN(c3nccc(C)n3)C2)c1 (centres undefined) | inconclusive: 39.8 µM [activator, single point] | – |
| N#CC1=C(N)Oc2n[nH]c(-c3cccs3)c2C1c1ccoc1 (centres undefined) | – | inactive: -6.89% |
| CCc1ccc(NC(=O)Nc2cn(C)c(=O)c3ccccc23)cc1 | inconclusive: 31.6 µM [inhibitor, single point] | – |
| CCN(CCCNC(=O)CSc1cc(=O)n(CC)c2ccccc12)c1ccccc1 | inconclusive: 39.8 µM [activator, single point] | – |
| N#CCCn1c(=O)c(-c2cccc(C#N)c2)nc2cnc(Oc3cccc(Cl)c3)nc21 | inconclusive: 39.8 µM [inhibitor, single point] | – |
| CCOC(=O)c1ccc(N2C(=O)c3[nH]nc(-c4ccc(C)cc4)c3C2c2ccc(O)cc2)cc1 (centres undefined) | inconclusive: 39.8 µM [inhibitor, single point] | – |
| Fc1ccc(Nc2nc(SCc3cccc(F)c3)nc3ccccc23)cc1 | – | inactive: 6.85% |
| CCN(CC)S(=O)(=O)c1ccc(NC(=O)c2nn(C)c3c2CSc2ccccc2-3)cc1 | – | inactive: 4.35% |
| CCOc1ccc(Nc2nc(N)c(C(=O)c3ccccc3Cl)s2)cc1 | inconclusive: 39.8 µM [inhibitor, single point] | – |
| O=C(CN1CCc2ccccc2C1)Nc1cc(S(=O)(=O)N2CCOCC2)ccc1N1CCOCC1 | inconclusive: 39.8 µM [activator, single point] | – |
| CCOC(=O)/C(=C/c1ccc(OC(=O)c2ccccc2)cc1)C(C)=O | inconclusive: 39.8 µM [activator, single point] | – |
